The other results are listed elsewhere or left out.

For this assay, the target named is T1, OsWOX13 (Oryza sativa, UniProt Q5QMM3 1-267).
T1 sequence: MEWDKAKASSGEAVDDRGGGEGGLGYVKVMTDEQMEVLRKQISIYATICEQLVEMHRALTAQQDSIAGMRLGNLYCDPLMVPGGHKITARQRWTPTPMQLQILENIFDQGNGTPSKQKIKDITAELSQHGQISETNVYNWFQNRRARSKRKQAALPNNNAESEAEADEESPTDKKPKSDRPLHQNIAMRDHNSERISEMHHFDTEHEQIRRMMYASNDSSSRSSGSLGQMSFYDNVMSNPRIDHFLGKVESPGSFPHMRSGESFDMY
The assay is described as follows: protein-binding microarray (RPBM); PBS, 2% BSA, 51.3 ng/ul salmon testes DNA, 50 uM zinc acetate, 200 nM TF, 25 C, 1 h; high values mean tight binding. The note with it: protein: recombinant; tags: N-terminal polyhistidine and DsRed monomer fusion (pET32a); label: CyDye5-dUTP incorporated in the synthesized complementary strand; 3' TTTTT single-stranded linker to array surface; dsDNA, one strand shown. In short, it runs like this: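 For the binding signal, per-feature fluorescence intensity was read in arbitrary units on an Axon 4000B scanner. Before scanning, a 2% BSA-blocked custom Agilent array made double-stranded with Cy5-dUTP was washed after 1 h at 25 °C with 200 nM protein and 50 µM zinc acetate. The proteins were Ni–NTA-purified transcription factors with N-terminal polyhistidine and DsRed fusions, expressed in E. coli BL21-CodonPlus.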
As to “GCAAATGCTTGACAGGAAACATTCAACTAGATCACATGGACGGAGTCACCTAGTGCAG”, the binding signal was 3490 fluorescence intensity (a.u.).
Under “ATCTGATTGATACAGTACTTATTCACTGGAGTAGTATTTCCGGAGTCACCTAGTGCAG” stands 40800 fluorescence intensity (a.u.); under “TTTCTATAAATTAAAGGTCCCTTAAATTATTTAGGTCCAACGGAGTCACCTAGTGCAG”, 4980 fluorescence intensity (a.u.); under “TTCCTAATTGTATTTCTATATGAACTCTATACTCTACTTCCGGAGTCACCTAGTGCAG”, 19900 fluorescence intensity (a.u.).
Under “TTAGAGATATTGAAATTGATTGAGAGGGAACCAACAGATACGGAGTCACCTAGTGCAG” stands 30500 fluorescence intensity (a.u.); under “AAAACAAATTAAACTATCATATTTATTCACGGTCAAATTTCGGAGTCACCTAGTGCAG”, 10100 fluorescence intensity (a.u.).
“TTATTAGTAAGAAATTTATAATTATACATTTTCATCTAAACGGAGTCACCTAGTGCAG”: the binding signal was 6060 fluorescence intensity (a.u.).
Take “TCTGACTGAATTGATCGGGATTGAATTTCAAAATATCCATCGGAGTCACCTAGTGCAG”: the binding signal is 51000 fluorescence intensity (a.u.).
For “GTTGATAATTCAAATTTTAACTGATAAATATAAGGCAGGCCGGAGTCACCTAGTGCAG”, the binding signal is 22500 fluorescence intensity (a.u.).
In the case of “CAAATAATTTTCATTAGAGGGATTAATGACTATATATGTCCGGAGTCACCTAGTGCAG”, the binding signal is 15200 fluorescence intensity (a.u.).
Consider “CTATTAATCATTGCCGATCGATTCCAACATGACATCGGCTCGGAGTCACCTAGTGCAG”, for which the binding signal was 3720 fluorescence intensity (a.u.).
Under “TTTCTTAATATATGTCAATTTCAACTTTCCTATTTAAGCTCGGAGTCACCTAGTGCAG” stands 7750 fluorescence intensity (a.u.); under “TGAATTGATCGTGAGCTGATTGCAAGTTAAAACAATCTATCGGAGTCACCTAGTGCAG”, 18600 fluorescence intensity (a.u.); under “CCAGATTACTATAATCCAATAATCTCCTCTAGAGGAGCTTCGGAGTCACCTAGTGCAG”, 8790 fluorescence intensity (a.u.).
Take “TCCTAATTTAATTTGAGACCAACGAATTTGGTACAATTTTCGGAGTCACCTAGTGCAG”: the binding signal was 11700 fluorescence intensity (a.u.).
The result for “AAATAATTGTGCCTTATAATCCCTCCGTCCCAAAATAAGTCGGAGTCACCTAGTGCAG” reads 8170 fluorescence intensity (a.u.); that for “CTCCACTAATTACTCCACCCAACCATTGGATTCAATGGGCCGGAGTCACCTAGTGCAG”, 21700 fluorescence intensity (a.u.); that for “TGGATGCATGACTGATGGTGATTGTGGTGCTGAAGATCAGCGGAGTCACCTAGTGCAG”, 13600 fluorescence intensity (a.u.).
“CCGTGTAATTAGGCTAAGGCCACATTTAGCATAACTTTACCGGAGTCACCTAGTGCAG”: the binding signal was 6160 fluorescence intensity (a.u.).
Regarding “TTAGGAGACTAAATTTGCCTGATTATAAATAGCTAAGCGCCGGAGTCACCTAGTGCAG”, the binding signal is 11600 fluorescence intensity (a.u.).
As for “CCCATCCCAATCACATGGACCACGGCCCGCCACGTAAGCACGGAGTCACCTAGTGCAG”, the binding signal is 7920 fluorescence intensity (a.u.).
With “GTCCAAAACATCAATTAATATGGAACCGGAGGGAGTAGTACGGAGTCACCTAGTGCAG”, the binding signal is 9040 fluorescence intensity (a.u.).
As for “TCTTTTCTTCCCTAATTGATCTCCTAGAGAGTTGAGAGTTCGGAGTCACCTAGTGCAG”, the binding signal was 4660 fluorescence intensity (a.u.).
With “ATTTGATTAACAGGCTGAATTCGTTCGAGAGATTTGATAACGGAGTCACCTAGTGCAG”, the binding signal was 26900 fluorescence intensity (a.u.).
For “TAGATGGTCAGATAGATTGAGCTAAGCACACACACACACTCGGAGTCACCTAGTGCAG”, the binding signal was 6610 fluorescence intensity (a.u.).
Turning to “CGCACGTAAATTTTAAATTTTGTATTGGATTTGGTCTTTTCGGAGTCACCTAGTGCAG”, the binding signal is 14600 fluorescence intensity (a.u.).
Consider “AGATTAATTTTGTACACCCTCCGCATTTTAATGTATGACGCGGAGTCACCTAGTGCAG”, for which the binding signal was 10900 fluorescence intensity (a.u.).
As to “GCACACATGATCAATCAATTAATAGATTAGGTAGGTACGGCGGAGTCACCTAGTGCAG”, the binding signal was 51100 fluorescence intensity (a.u.).
Under “GCAATCTATTATTAATTATATATGTATATATATGATAATTCGGAGTCACCTAGTGCAG” stands 5800 fluorescence intensity (a.u.); under “AATAAATTGGACCAGAAGCTAACATTGGATCTGAATTAAGCGGAGTCACCTAGTGCAG”, 17400 fluorescence intensity (a.u.); under “ATGATAAGTATAATTACTTATCCTTGGTCTGTGTGTCAAGCGGAGTCACCTAGTGCAG”, 11500 fluorescence intensity (a.u.).
With “TTAATTGGATTGTTTTGATTCGTTGGAGAAGTTAGGAATACGGAGTCACCTAGTGCAG”, the binding signal was 28600 fluorescence intensity (a.u.).
The result for “GGTTAATTATGCGAAAGAGAATCTTAATCCCAGGGGCTTTCGGAGTCACCTAGTGCAG” reads 17600 fluorescence intensity (a.u.).
Take “TTATCATATATAATCATGAATTATAAACTAAAATAACTGCCGGAGTCACCTAGTGCAG”: the binding signal was 4600 fluorescence intensity (a.u.).
As to “ATTGTCAACATAATCAATCTAAACCGTTTAATAGATATATCGGAGTCACCTAGTGCAG”, the binding signal is 6110 fluorescence intensity (a.u.).
In the case of “GTTAATGGAGCCAATTGGTTCTCTGTATTTTGTTAGGCAACGGAGTCACCTAGTGCAG”, the binding signal is 11200 fluorescence intensity (a.u.).
For the sequence “TTGATTAGCCAAGAGTCAAGTGCATTGCTTCCATTTGTAGCGGAGTCACCTAGTGCAG”, the binding signal was 18800 fluorescence intensity (a.u.).
Under “TTAATTAATTAACGTATGTACTCAGGAATTATATATAATACGGAGTCACCTAGTGCAG” stands 28600 fluorescence intensity (a.u.).
As for “ACCACCGCCGCCGCCGCCTGATTGGTGGTAATCGGAGGTGCGGAGTCACCTAGTGCAG”, the binding signal is 4860 fluorescence intensity (a.u.).
The result for “TAATCAATCATCACCACCATCTAATTTAACGACCACGGTCCGGAGTCACCTAGTGCAG” reads 36800 fluorescence intensity (a.u.).
For “ACCTTGATTATTCTTCTCCAGGAATCGCAGCAGAGTGCGGCGGAGTCACCTAGTGCAG”, the binding signal was 30800 fluorescence intensity (a.u.).
The result for “CATCAATCATGATTGAAGATGATTCAAGGTTGAGAGGACCCGGAGTCACCTAGTGCAG” reads 53900 fluorescence intensity (a.u.).

These data come from publication PMC7819943, “Rice protein-binding microarrays: a tool to detect cis-acting elements near promoter regions in rice”.
